Measurements taken from article PMC6212790.
The other results are listed elsewhere or left out. At the low end of the ranking the order means little.

biological target: T1, GST-Rok-C97-191 (UniProt O34857); assay: protein binding microarray; details: Rok is a gene silencer of Bacillus subtilis; high values mean tight binding; most listed sequences are background and not binding sites; double strand, one strand shown;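 also: rank score from −0.5 (least bound) to 0.5 (best bound)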
T1 sequence: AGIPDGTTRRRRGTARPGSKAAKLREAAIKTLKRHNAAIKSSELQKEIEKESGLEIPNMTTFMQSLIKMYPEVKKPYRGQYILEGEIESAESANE

Sequence | binding signal [E-score]
ACTCGGCA | -0.122
ACTGACAT | -0.113
CGGCTCTA | 0.00628
CCACACCG | 0.0146
AATTCATG | 0.131
AGACTCCT | -0.067
CAGTGTGC | -0.172
CCACTGTA | 0.137
CCAACCAC | -0.176
ATAGCGTA | 0.195
GACCCAGC | -0.165
CATATGAC | -0.0112
ACCCCATG | -0.199
GCGGCCTA | -0.313
GCGCTTGA | -0.0679
GGGAAAAC | 0.0871
CCCGGACC | -0.312
CAACCCTA | -0.114
ACTACACT | 0.23
AATGGGCT | -0.0767
CAATCACA | 0.191
GCTATGAC | 0.185
AACTCGCG | -0.0933
AGAGCAAG | -0.131
CCTAGGGA | -0.0937

Sequence | binding signal [E-score]
GAGAGTCC | -0.107
CACTGGCG | -0.13
CCCCTGAC | -0.315
ACCATGGG | -0.19
CCGCTCGA | -0.159
ATTCGGCC | -0.132
ACCCTGGC | -0.108
TGTGGCAA | -0.0517
GACACAGA | -0.213
CGTTTGTA | 0.113
TGGGTAAA | 0.0472
AAGTGCTA | 0.153
CAAGAAAG | -0.0635
ACATACTC | 0.0713
AGGACACA | -0.0986
AGGCCGTC | -0.0752
GCTTACCA | -0.125
AGCCAGAT | -0.0784
AGAGCAAC | -0.122
GTGAACGA | -0.0692
GCCGTTCC | -0.237
AGGTGACT | -0.202
CAGTTGTC | 0.0187
ATTGCCCC | -0.211
AATCATCT | -0.0652

Sequence | binding signal [E-score]
CTCTACAA | 0.00826
ATGCAGGG | -0.115
ACCTTTCA | -0.109
ACGAGACC | -0.227
CTGTTGAA | -0.0237
AATGGACG | -0.176
CTAGGTGA | 0.0649
GGATCGCC | -0.128
AGAGAGTG | -0.0254
CCCAACTA | 0.257
CACAGGGG | -0.225
ATTGACGC | 0.0898
CTCTGGGC | -0.112
ATAATTTG | 0.344
CACCCTGA | -0.155
ACCCTAAA | 0.00947
GGTGAGAA | -0.115
CTCCTCCA | -0.189
TACTAATA | 0.298
ACTGTGTC | -0.0876
AAGCGGAA | -0.00148
CCCGTAAG | -0.221
AGCTCAGG | -0.065
ATATCCTA | 0.289
AATAGGGA | 0.061

Sequence | binding signal [E-score]
AGACGTCG | 0.0181
GTTATCGA | -0.0227
AGATAGAC | 0.0495
ACCCATGA | 0.0785
ACGCGCGC | -0.109
CATTATGG | 0.0609
AATTTACT | 0.416
CGGTCTCA | -0.142
ACTGGCGA | -0.0147
ACCACTAG | 0.117
CAATTCCG | -0.0553
CCAGTGTC | -0.173
CAGCTCCA | -0.0439
GACTCTTA | -0.18
GGTACTTA | 0.198
CGCCTTGC | -0.31
CATAACGC | 0.0154
CGATATCC | 0.134
ACGATTTC | -0.0407
CCCAAACG | 0.0806
CACCGTTC | 0.0362
GTCGTGGA | 0.0312
ATGTGTCA | 0.116
ATCGGTTC | -0.0124
GCCGGGCA | -0.292

Sequence | binding signal [E-score]
ATTATCTC | 0.0108
TGGCCCCA | -0.202
CTCCAACA | 0.00134
ACACGACG | 0.033
ATTGGTCG | -0.0188
AGGTGAGA | -0.271
GCGAACGA | -0.167
CCGCTCAG | -0.196
CCTAAGAA | -0.0671
ACACGTAC | -0.0778
ACCAGTCC | -0.162
GGCGTAAC | -0.23
ACCATCCC | 0.101
CAGCGGTA | 0.00278
AAGTCGGT | 0.112
CTATAAAG | 0.0382
ACCCGTGA | -0.231
CGGAGTGC | -0.256
CTCTGGGA | 0.039
CGGGAAGC | -0.059
CCGAAACA | -0.0139
CCAAGCAC | -0.302
CGCATACC | -0.053
CTCTGCAA | -0.172
AGTGTAAA | 0.177

Sequence | binding signal [E-score]
ACCTCGAT | 0.113
AGCCCATA | -0.116
AGCAGATC | 0.00263
GGATAAAC | 0.15
AGGAAGAA | 0.0109
CGAAATCC | 0.0516
GTCGCGAA | -0.197
AGTATGAC | 0.127
GTCGTAAA | 0.0852
CCTCCGCA | -0.3
AAAGCGGC | -0.225
ATTAACGC | -0.000919
ACCACTCC | 0.0373
CGGAATCC | -0.161
CACTGCGG | -0.204
CGTGTGTC | -0.0655
CAGTACAA | 0.251
ATAGAAAG | 0.292
CATTCTAG | 0.202
AGTAATTA | 0.376
TAGTGTCA | 0.158
ATTAACGG | 0.137
AAAGGAGA | -0.107
GACCATGC | -0.188
AAGCGTAA | 0.00495

Sequence | binding signal [E-score]
AATCAAAC | 0.145
AAGTTCCA | -0.0431
AGTACCGA | 0.222
TGCTGACA | -0.08
AAATAATA | 0.317
CTAAGATC | -0.0211
CCCGCCGC | -0.409
CCGTGCCG | -0.0955
GCTTGCAC | -0.119
AACAGAAA | 0.00945
ACATGCCG | -0.156
GAATCCTC | -0.24
CCTTTAGC | -0.125
AAATGCGC | 0.0187
GCCAAGCA | -0.314
AATCCCGA | -0.0261
TAGTTCCA | 0.26
ATTTCCTA | 0.204
AAAGCATA | 0.0711
AAAGAGGT | 0.0452
ATCATCAC | 0.0601
AGCACGAG | -0.17
